Experimental data: patent publication US20080045697A1 (Genentech, published 2008)

Key:
complement C3b [1] = target: T1, complement C3b (UniProt P01024 23-667; P01024 part only); assay: ELISA: bound factor B detected with polyclonal anti-fB and HRPO secondary antibody
T1 construct: range 1-645;range 729-1641; The residue numbers seem to count on C3 without its signal peptide
Method: FIG. 13. […] Left panel: A fixed concentration of C3b was mixed with increasing concentrations of factor H in the presence of 4 μM CRIg(wt) or CRIg(C). Co-factor activity was monitored by visualizing the reaction product on a commassie-stained SDS gel to distinguish C3b from iC3b. Right panel: A fixed concentration of C3b and fI was mixed with fH or an increasing concentration of CRIg. […] A fixed concentration of factor B was mixed with increasing concentrations of CRIg. The amount of bound factor B was determined using a polyclonal antibody to fB and a secondary HRPO conjugated ab. […] A C3 convertase was formed on a maxisorp plate by incubating C3b, factor B and factor D. The plate was then incubated with increasing concentration of CRIg or factor H. The remaining factor B bound was detected with an anti factor B antibody and a HRPO-conjugated secondary antibody. The result shown is representative of 3 independent experiments.

complement C3b [2] = target: T1, complement C3b; assay: Fig. S13A-C and results not shown
T1 sequence (P01024 23-667 limits assumed, chain 1 of 2): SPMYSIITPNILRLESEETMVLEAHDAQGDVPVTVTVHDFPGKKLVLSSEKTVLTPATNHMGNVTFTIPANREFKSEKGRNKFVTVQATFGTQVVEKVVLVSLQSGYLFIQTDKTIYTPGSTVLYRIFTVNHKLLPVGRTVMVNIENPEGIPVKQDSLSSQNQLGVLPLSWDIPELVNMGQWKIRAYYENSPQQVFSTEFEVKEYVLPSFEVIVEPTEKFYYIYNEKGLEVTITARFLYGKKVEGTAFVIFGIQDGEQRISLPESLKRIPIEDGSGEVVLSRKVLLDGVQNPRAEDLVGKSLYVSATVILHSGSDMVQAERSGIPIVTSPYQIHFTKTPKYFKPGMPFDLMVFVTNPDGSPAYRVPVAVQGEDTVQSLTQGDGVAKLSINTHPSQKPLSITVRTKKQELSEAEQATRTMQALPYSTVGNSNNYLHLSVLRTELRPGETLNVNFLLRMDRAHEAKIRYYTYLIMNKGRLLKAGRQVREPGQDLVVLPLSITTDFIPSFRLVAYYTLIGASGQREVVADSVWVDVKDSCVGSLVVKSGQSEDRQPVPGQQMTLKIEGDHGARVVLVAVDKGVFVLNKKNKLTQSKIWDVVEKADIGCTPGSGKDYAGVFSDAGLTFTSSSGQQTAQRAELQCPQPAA
T1 sequence (P01024 751-1663 limits assumed, chain 2 of 2): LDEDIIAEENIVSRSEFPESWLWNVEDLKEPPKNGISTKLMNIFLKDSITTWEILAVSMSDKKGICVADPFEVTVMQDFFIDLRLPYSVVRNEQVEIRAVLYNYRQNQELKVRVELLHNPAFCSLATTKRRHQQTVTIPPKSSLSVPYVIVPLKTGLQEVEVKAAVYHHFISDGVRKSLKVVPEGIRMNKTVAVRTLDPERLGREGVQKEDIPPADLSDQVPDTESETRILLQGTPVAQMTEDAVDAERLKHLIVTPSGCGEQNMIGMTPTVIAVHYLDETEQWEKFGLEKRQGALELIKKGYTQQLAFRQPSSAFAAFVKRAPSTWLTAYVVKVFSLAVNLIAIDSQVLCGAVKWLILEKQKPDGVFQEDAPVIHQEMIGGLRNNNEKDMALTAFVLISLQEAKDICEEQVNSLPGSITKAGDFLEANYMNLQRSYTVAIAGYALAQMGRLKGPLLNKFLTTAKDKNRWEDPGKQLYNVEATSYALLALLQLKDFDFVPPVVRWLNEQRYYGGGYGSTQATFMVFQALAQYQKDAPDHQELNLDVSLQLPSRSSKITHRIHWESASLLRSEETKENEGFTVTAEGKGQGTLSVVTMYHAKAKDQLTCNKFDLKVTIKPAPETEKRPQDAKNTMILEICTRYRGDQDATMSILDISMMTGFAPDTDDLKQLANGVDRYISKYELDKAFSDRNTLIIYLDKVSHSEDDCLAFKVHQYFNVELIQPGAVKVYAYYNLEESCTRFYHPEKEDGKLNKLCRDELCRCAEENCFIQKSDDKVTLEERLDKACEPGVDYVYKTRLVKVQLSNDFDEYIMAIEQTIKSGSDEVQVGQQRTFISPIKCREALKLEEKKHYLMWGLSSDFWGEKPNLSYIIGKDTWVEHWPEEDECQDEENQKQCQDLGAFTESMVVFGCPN

binding result (complement C3b [1])	binding result (complement C3b [2])	Binder
binds		complement factor B (enzyme, UniProt P00751 26-764, looked up, also called fB) TPWSLARPQGSCSLEGVEIKGGSFRLLQEGQALEYVCPSGFYPYPVQTRTCRSTGSWSTLKTQDQKTVRKAECRAIHCPRPHDFENGEYWPRSPYYNVSDEISFHCYDGYTLRGSANRTCQVNGRWSGQTAICDNGAGYCSNPGIPIGTRKVGSQYRLEDSVTYHCSRGLTLRGSQRRTCQEGGSWSGTEPSCQDSFMYDTPQEVAEAFLSSLTETIEGVDAEDGHGPGEQQKRKIVLDPSGSMNIYLVLDGSDSIGASNFTGAKKCLVNLIEKVASYGVKPRYGLVTYATYPKIWVKVSEADSSNADWVTKQLNEINYEDHKLKSGTNTKKALQAVYSMMSWPDDVPPEGWNRTRHVIILMTDGLHNMGGDPITVIDEIRDLLYIGKDRKNPREDYLDVYVFGVGPLVNQVNINALASKKDNEQHVFKVKDMENLEDVFYQMIDESQSLSLCGMVWEHRKGTDYHKQPWQAKISVIRPSKGHESCMGAVVSEYFVLTAAHCFTVDDKEHSIKVSVGGEKRDLEIEVVLFHPNYNINGKKEAGIPEFYDYDVALIKLKNKLKYGQTIRPICLPCTEGTTRALRLPPTTTCQQQKEELLPAQDIKALFVSEEEKKLTRKEVYIKNGDKKGSCERDAQYAPGYDKVKDISEVVTPRFLCTGGVSPYADPNTCRGDSGGPLIVHKRSRFIQVGVISWGVVDVCKNQKRQKQVPAHARDFHINLFQVLPWLKEKLQDEDLGFL
	binds	properdin (other, UniProt P27918 28-469, looked up) DPVLCFTQYEESSGKCKGLLGGGVSVEDCCLNTAFAYQKRSGGLCQPCRSPRWSLWSTWAPCSVTCSEGSQLRYRRCVGWNGQCSGKVAPGTLEWQLQACEDQQCCPEMGGWSGWGPWEPCSVTCSKGTRTRRRACNHPAPKCGGHCPGQAQESEACDTQQVCPTHGAWATWGPWTPCSASCHGGPHEPKETRSRKCSAPEPSQKPPGKPCPGLAYEQRRCTGLPPCPVAGGWGPWGPVSPCPVTCGLGQTMEQRTCNHPVPQHGGPFCAGDATRTHICNTAVPCPVDGEWDSWGEWSPCIRRNMKSISCQEIPGQQSRGRTCRGRKFDGHRCAGQQQDIRHCYSIQHCPLKGSWSEWSTWGLCMPPCGPNPTRARQRLCTPLLPKYPPTVSMVEGQGEKNVTFWGRPLPRCEELQGQKLVVEEKRPCLHVPACKDPEEEEL
